{"source": "paper PMC6212790", "note": "This is one part of the list. At the low end of the ranking the order means little."}
{"target": "T1, GST-Rok-C97-191 (UniProt O34857)", "T1 sequence": "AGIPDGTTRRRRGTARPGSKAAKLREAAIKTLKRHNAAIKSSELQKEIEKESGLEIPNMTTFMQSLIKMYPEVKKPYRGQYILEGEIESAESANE", "assay": "protein binding microarray;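 further: rank score from −0.5 (least bound) to 0.5 (best bound)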", "conditions": "Rok is a gene silencer of Bacillus subtilis; high values mean tight binding; most listed sequences are background and not binding sites; double strand, one strand shown", "units": {"binding signal": "E-score"}}
{"sequence": "GTGTTCGA", "binding signal": 0.0124}
{"sequence": "CAACACAA", "binding signal": 0.034}
{"sequence": "GCGTTTCC", "binding signal": -0.187}
{"sequence": "AGAAAATC", "binding signal": 0.196}
{"sequence": "CGAAGATC", "binding signal": 0.00538}
{"sequence": "TACGCTGA", "binding signal": 0.0818}
{"sequence": "AACCCTCC", "binding signal": -0.255}
{"sequence": "TAGGTTCA", "binding signal": 0.144}
{"sequence": "ACAACTGC", "binding signal": 0.156}
{"sequence": "ACCATGCT", "binding signal": -0.087}
{"sequence": "CAATTTCG", "binding signal": 0.0833}
{"sequence": "GTAGGTCA", "binding signal": -0.0909}
{"sequence": "GGTCTGTA", "binding signal": -0.0904}
{"sequence": "ATGCAAGA", "binding signal": 0.06}
{"sequence": "GCTACGCC", "binding signal": -0.152}
{"sequence": "CCGTAGAC", "binding signal": -0.229}
{"sequence": "AACCTCGA", "binding signal": -0.0488}
{"sequence": "AGCATTCA", "binding signal": 0.053}
{"sequence": "CTGGTAAG", "binding signal": 0.108}
{"sequence": "CCGAGCGC", "binding signal": -0.412}
{"sequence": "AACGCCCT", "binding signal": -0.11}
{"sequence": "TGCTCACA", "binding signal": -0.0913}
{"sequence": "CGAGGTAA", "binding signal": 0.064}
{"sequence": "AATCCTGT", "binding signal": 0.0565}
{"sequence": "CCGTTTAC", "binding signal": -0.00858}
{"sequence": "CGCGTTAA", "binding signal": -0.19}
{"sequence": "CTAGGGTA", "binding signal": 0.0219}
{"sequence": "GGCAGTGA", "binding signal": -0.363}
{"sequence": "CTGGAATA", "binding signal": 0.0986}
{"sequence": "CGGATTAG", "binding signal": 0.00878}
{"sequence": "ACGTACGG", "binding signal": 0.0152}
{"sequence": "ATCACCCC", "binding signal": -0.221}
{"sequence": "CCCTCTCG", "binding signal": -0.213}
{"sequence": "GGCTAACA", "binding signal": 0.0703}
{"sequence": "CCACAGAG", "binding signal": -0.209}
{"sequence": "GATTCAGC", "binding signal": -0.0938}
{"sequence": "ATGTGTAA", "binding signal": 0.216}
{"sequence": "ACTGCCTC", "binding signal": -0.278}
{"sequence": "ACTTTGAG", "binding signal": -0.0751}
{"sequence": "AACTAACT", "binding signal": 0.352}
{"sequence": "TAAAAGAA", "binding signal": 0.0213}
{"sequence": "GGTGACTA", "binding signal": -0.0802}
{"sequence": "CCAAGCCC", "binding signal": -0.263}
{"sequence": "GAGTGACA", "binding signal": -0.0777}
{"sequence": "GAACCAAC", "binding signal": -0.103}
{"sequence": "CGAATCAA", "binding signal": -0.196}
{"sequence": "CGAGGCTA", "binding signal": -0.174}
{"sequence": "AAGTACCA", "binding signal": 0.264}
{"sequence": "AATCAGTA", "binding signal": 0.281}
{"sequence": "AACATGGG", "binding signal": 0.0274}
{"sequence": "CGAAGAGA", "binding signal": 0.082}
{"sequence": "AGTCCCAT", "binding signal": -0.0957}
{"sequence": "AGGCCTAC", "binding signal": 0.0721}
{"sequence": "GAACTCTA", "binding signal": -0.0126}
{"sequence": "GGGAGCAA", "binding signal": -0.0719}
{"sequence": "GCCTCCTA", "binding signal": -0.232}
{"sequence": "ACAGAAAA", "binding signal": -0.0493}
{"sequence": "CCCAATAG", "binding signal": -0.0877}
{"sequence": "CCAGCGAA", "binding signal": -0.117}
{"sequence": "CATAAGGC", "binding signal": -0.107}
{"sequence": "ATGTGACA", "binding signal": 0.135}
{"sequence": "ACGCCCAC", "binding signal": -0.165}
{"sequence": "CCAGTCAG", "binding signal": -0.257}
{"sequence": "GGATAAGA", "binding signal": -0.0139}
{"sequence": "AGTGCAGG", "binding signal": -0.0563}
{"sequence": "AAGTCGTA", "binding signal": 0.0446}
{"sequence": "CACCTGCA", "binding signal": -0.0168}
{"sequence": "ATGCATTA", "binding signal": 0.0789}
{"sequence": "GGCGAAAA", "binding signal": 0.15}
{"sequence": "AAGGGTAT", "binding signal": -0.14}
{"sequence": "TCATGACA", "binding signal": -0.00654}
{"sequence": "AGCACTCA", "binding signal": 0.041}
{"sequence": "AATATTGA", "binding signal": 0.22}
{"sequence": "CCCGATGC", "binding signal": -0.208}
{"sequence": "GATCATAA", "binding signal": 0.0823}
{"sequence": "GATAGTAA", "binding signal": 0.367}
{"sequence": "AACGTCCT", "binding signal": -0.274}
{"sequence": "GCAACCCC", "binding signal": -0.387}
{"sequence": "AGGACCAT", "binding signal": -0.0969}
{"sequence": "CTATAACA", "binding signal": 0.22}
{"sequence": "ACGCAGCT", "binding signal": -0.0346}
{"sequence": "GGCAGAAC", "binding signal": -0.0311}
{"sequence": "CAAGCCGC", "binding signal": -0.148}
{"sequence": "CGGGTAGC", "binding signal": -0.292}
{"sequence": "CTGCCTCA", "binding signal": -0.184}
{"sequence": "CGCGATAC", "binding signal": 0.147}
{"sequence": "AAATATCG", "binding signal": 0.314}
{"sequence": "ACTACAGA", "binding signal": 0.204}
{"sequence": "ATGCACCC", "binding signal": -0.123}
{"sequence": "CCATGTAG", "binding signal": 0.213}
{"sequence": "ATCAGGCA", "binding signal": -0.0512}
{"sequence": "CTGTGACC", "binding signal": 0.0922}
{"sequence": "GAATCGAA", "binding signal": "5.25e-05"}
{"sequence": "CACAGCAA", "binding signal": 0.108}
{"sequence": "ACAGATCC", "binding signal": -0.12}
{"sequence": "CGTGGGTC", "binding signal": -0.284}
{"sequence": "AGACTTTG", "binding signal": -0.0954}
{"sequence": "AAGGTTCC", "binding signal": -0.282}
{"sequence": "AGCGAGCT", "binding signal": -0.0556}
{"sequence": "CTTAGCAA", "binding signal": 0.0557}
{"sequence": "ATACAGAG", "binding signal": 0.0129}
{"sequence": "TATCGAAA", "binding signal": 0.16}
{"sequence": "GAATCATA", "binding signal": 0.126}
{"sequence": "CCCAGACG", "binding signal": -0.219}
{"sequence": "ATGTAGTC", "binding signal": 0.156}
{"sequence": "GATAGGGA", "binding signal": -0.0661}
{"sequence": "AGTGACGG", "binding signal": 0.0589}
{"sequence": "GCGGGGCA", "binding signal": -0.222}
{"sequence": "GCACCTCA", "binding signal": -0.0836}
{"sequence": "TACTGCCA", "binding signal": -0.0971}
{"sequence": "CCAAGGCA", "binding signal": -0.209}
{"sequence": "CATCTACC", "binding signal": 0.222}
{"sequence": "AACCTCTC", "binding signal": 0.0396}
{"sequence": "CTTCAACC", "binding signal": -0.257}
{"sequence": "ATAGGGAG", "binding signal": -0.224}
{"sequence": "ACGCTTTA", "binding signal": -0.0326}
{"sequence": "CTCCTCGC", "binding signal": -0.244}
{"sequence": "ACTGAAAC", "binding signal": -0.205}
{"sequence": "GCCCATAA", "binding signal": -0.116}
{"sequence": "CCACAGGG", "binding signal": -0.288}
{"sequence": "AGAGTTAC", "binding signal": 0.089}
{"sequence": "CAATGCGG", "binding signal": -0.0545}
{"sequence": "ACTAATGA", "binding signal": 0.0758}
{"sequence": "TCCGACCA", "binding signal": -0.0488}
{"sequence": "CCTCGGTA", "binding signal": -0.0315}
{"sequence": "AAACGTAA", "binding signal": 0.167}
{"sequence": "CCCGAAAC", "binding signal": -0.179}
{"sequence": "CCTGTGTA", "binding signal": -0.0412}
{"sequence": "CGAGCACG", "binding signal": -0.235}
{"sequence": "AGGGATAC", "binding signal": -0.0149}
{"sequence": "AGATTTGG", "binding signal": 0.216}
{"sequence": "ACCCGATG", "binding signal": -0.196}
{"sequence": "GTGAAAAC", "binding signal": 0.0517}
{"sequence": "TCCAGGGA", "binding signal": -0.144}
{"sequence": "GACTATGC", "binding signal": -0.181}
{"sequence": "ACCGTTAA", "binding signal": 0.2}
{"sequence": "CACCAGAC", "binding signal": -0.152}
{"sequence": "AAGACCGT", "binding signal": -0.0627}
{"sequence": "CTACCTCA", "binding signal": 0.195}
{"sequence": "CGCCAGGA", "binding signal": -0.19}
{"sequence": "ATTCTGTA", "binding signal": 0.128}
{"sequence": "CCCCTAGC", "binding signal": -0.348}
{"sequence": "TTCTGCAA", "binding signal": -0.0159}
{"sequence": "AGCGACAG", "binding signal": -0.107}
{"sequence": "CGCGATGA", "binding signal": -0.0419}
{"sequence": "ATTAGAGA", "binding signal": 0.0812}
{"sequence": "CGCAAGAC", "binding signal": -0.0568}
{"sequence": "ACTCGCTC", "binding signal": -0.0387}
{"sequence": "AAAATACG", "binding signal": 0.266}
{"sequence": "AACACGTT", "binding signal": -0.147}
{"sequence": "GGAGGGTA", "binding signal": -0.0681}
{"sequence": "CTTGGCTA", "binding signal": -0.0782}
{"sequence": "GCACCAAA", "binding signal": -0.0766}
{"sequence": "CATATGAG", "binding signal": -0.0118}
{"sequence": "AACTATCG", "binding signal": 0.273}
{"sequence": "AAGATAAC", "binding signal": 0.131}
{"sequence": "CAACTCTG", "binding signal": -0.0947}
{"sequence": "AATAGCAC", "binding signal": 0.018}
{"sequence": "GACTGGCA", "binding signal": -0.264}
{"sequence": "AGAGTTTG", "binding signal": 0.0726}
{"sequence": "AAGCCATG", "binding signal": -0.16}
{"sequence": "TAGACCTA", "binding signal": 0.145}
{"sequence": "ACCAGCAA", "binding signal": -0.0779}
{"sequence": "GGACCCGA", "binding signal": -0.216}
{"sequence": "CTGCTAGC", "binding signal": -0.11}
{"sequence": "ATGGTTCG", "binding signal": 0.0377}
{"sequence": "GATGGGGC", "binding signal": -0.242}
{"sequence": "CTAGAGAG", "binding signal": -0.13}
{"sequence": "AAGCATCG", "binding signal": -0.0441}
{"sequence": "CAGCACGA", "binding signal": 0.00213}
{"sequence": "ACGGTAGG", "binding signal": 0.164}
{"sequence": "GGAGGCCC", "binding signal": -0.322}
